Measurements from the supplement of paper PMC11417369.
± gives the standard deviation of the averaged measurements. The list shows a part of the results.

Tested on: PfAP2-I AP2 domain 3 (GST-tagged)
Experiment: gcPBM binding intensity (ln(normalized median fluorescence intensity)); higher = stronger DNA binding
Outline: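 Binding intensity is defined as the maximum Masliner-normalised natural-log median intensity across replicate spots for either probe orientation. It was measured on an Agilent 4 × 180k array of primer-extended double-stranded 36-bp intergenic genomic probes and negative controls, to which GST-tagged P. falciparum DNA-binding domains made in E. coli were applied for 1 h in 1× PBS with 1% milk, 0.2 mg/ml BSA, 0.5% salmon testes DNA and 0.03% Triton X-100. Detection was by Alexa488 anti-GST antibody and scanning at 488 nm.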

In order of falling “gcPBM binding intensity (ln)” value:
1. TTTTTGTTACCTATTGTGCACTTCATATAAATTAAA  11.3 ± 0.35
2. AATTGTGCATTATATTGTACACGTGTTGTATATATT [XGTACX_site975]  11.1 ± 0.4
3. TGTGCACGTTCTGTGACACACATTTAAATGTGCTTA [CACACA_site176]  9.87 ± 0.23
4. TATATATATATATATTGTACGAACCTTTTTTTTTTT [XGTACX_site4169]  9.53 ± 0.057
5. ATATATATATATAGTTGTACTTAATTTTATATGTTA [XGTACX_site5256]  9.53 ± 0.35
6. CCTTGATATATATAAAGTACATATATATATATATAT [XGTACX_site4325]  9.38 ± 1
7. ATATATATATATATATGTACATATTTATATTGTAAA [XGTACX_site8878]  9.07 ± 0.39
8. ACATATATTTCAAAGTGTACGCACAATTTTTTTTAC [XGTACX_site6166]  8.54 ± 0.39
9. GTGAAATTATTTCCGTGTACACATAAATATATATTT [XGTACX_site3989]  8.39 ± 0.61
10. ATATAACTCAAGGGCACACATATACCTTTCCTTTTT [CACACA_site4390]  8.32 ± 0.63
11. TTATTATTTTTTAACACACACATATATATTATATCT [CACACA_site4906]  8.15 ± 0.38
12. TTTTACAAATATTACTGTACACATTTTCATATAATT [XGTACX_site17]  8.14 ± 0.41
13. AATACACGCAGACACACACACAAAAAAAAAAAAAAA [CACACA_site6384]  8.14 ± 0.51
14. GGAACGTATATTTTCACACACTCTCAAAAGTACAAG [CACACA_site2301]  8.09 ± 0.55
15. TTAGTTTCCCAAATATGTACATAAATATAAATCATA [XGTACX_site2746]  7.99 ± 0.15
16. ATATATAATCATCACACATGCAGCCCTGATGAAAAA [TGCATGCA_site687]  7.97 ± 0.64
17. CTAACACTAATTTTTTGTACACAATATGTAAATAAA [XGTACX_site6424]  7.96 ± 0.24
18. ATTTCAACAAATATAACACACAATGGATAAGAATAA [CACACA_site1974]  7.96 ± 0.72
19. GAAACAAAATTATTTTGTACATATGACTGTAGATAT [XGTACX_site972]  7.88 ± 0.54
20. TATAAATTTTTATTTACATGCAGTTATTATTTCCAT [TGCATGCA_site41]  7.87 ± 0.79
21. TATATAAAACATGGGTGTACCAACATAAATCATATA [XGTACX_site2320]  7.84 ± 0.62
22. TAATGTAATACATATTGTACACATACATATATATTT [XGTACX_site7531]  7.83 ± 0.25
23. ATTAACACATTTAAGTGTACATATATAAATATATAT [XGTACX_site7098]  7.82 ± 0.57
24. AGAAAAAAATAATGTACACACACATATATGTTTATA [CACACA_site7946]  7.81 ± 0.51
25. TATTAAAAGGTTAAAGCATGCATACATATATATGTT [TGCATGCA_site865]  7.79 ± 0.69
26. CATGTGTTCTATATTTATGTCTAACTTTTTAATTAA [CACACA_negctrl_site904]  7.79 ± 0.49
27. ATTTTGTTATGAAACACACACATATAAATATAAATA [CACACA_site7679]  7.76 ± 0.48
28. GGGTATACCAATATAACACACATATATCTATAATAT [CACACA_site6348]  7.72 ± 0.57
29. TGATACGTATTTATTTCACACACGTTAAAAAAATAA [CACACA_site3914]  7.72 ± 0.35
30. TGTTGTATATCTCTATATAGCTATATTGTATATATA [TGCATGCA_negctrl_site323]  7.7 ± 0.72
31. GTAAGAACACTTTTGTGGTTACTTAAAAGTGTATAT [GTGCAC_negctrl_site422]  7.68 ± 0.55
32. TAATTTTTTAAATTTAAACACACATTTTGTATATGT [CACACA_site8479]  7.67 ± 0.63
33. AAACTTATAAAAAGTAGTACCATAAAATAATACATA [XGTACX_site6523]  7.66 ± 0.15
34. AATAATAAATAAAAATGTACACATACATTTCTATCC [XGTACX_site7057]  7.64 ± 0.4
35. ATTTTTACATAGGAAGCATGCATATTTTAAAAATAA [TGCATGCA_site1046]  7.62 ± 0.66
36. AACATATATATAATATGTACATAATATATATAAATG [XGTACX_site1161]  7.62 ± 0.35
37. ATATACAAAGGATTAACACACATATTATTATATATA [CACACA_site1880]  7.58 ± 0.58
38. TATACATTATTATTATGTACTTAAATATATATTATA [XGTACX_site5173]  7.54 ± 0.18
39. TATATTATTTATTAGACACACATTATTAAAATATTT [CACACA_site4737]  7.54 ± 0.51
40. TTGAATATGGTTACATGTACGTATCAATATTTTTTA [XGTACX_site4247]  7.54 ± 0.23
41. CAACAACAAAAAAAAAAATAATAATAATAAAAAATA [TGCATGCA_negctrl_site271]  7.5 ± 0.35
42. CGCATAAAGACAAGAACACACATATATATTGTAGTA [CACACA_site5938]  7.5 ± 0.27
43. TATTTTTTAAAAAAATGTCATAAAATTTCTTTTTTC [XGTACX_negctrl_site271]  7.33 ± 0.55
44. TTATTTCTGAATATTTTTTTTTTTTCTTCTTTTTTA [CACACA_negctrl_site815]  7.06 ± 0.69
